From publication PMC4336329 (PLoS ONE, 2015)
In all, about 310,000 compounds went through this assay and about 14,000 (4.5%) showed an effect of 50% or more. The effect is printed as a negative number. The list shows a part of the results.

Biological target: human ether-à-go-go-related gene (hERG) potassium channel (human, UniProt Q12809)
Experiment: primary screen, population patch clamp on CHO cells stably expressing hERG
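Also: peak tail current of the secondary pulse compared with the same well before compound.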

Sequence of human ether-à-go-go-related gene (hERG) potassium channel (Q12809 whole entry, looked up): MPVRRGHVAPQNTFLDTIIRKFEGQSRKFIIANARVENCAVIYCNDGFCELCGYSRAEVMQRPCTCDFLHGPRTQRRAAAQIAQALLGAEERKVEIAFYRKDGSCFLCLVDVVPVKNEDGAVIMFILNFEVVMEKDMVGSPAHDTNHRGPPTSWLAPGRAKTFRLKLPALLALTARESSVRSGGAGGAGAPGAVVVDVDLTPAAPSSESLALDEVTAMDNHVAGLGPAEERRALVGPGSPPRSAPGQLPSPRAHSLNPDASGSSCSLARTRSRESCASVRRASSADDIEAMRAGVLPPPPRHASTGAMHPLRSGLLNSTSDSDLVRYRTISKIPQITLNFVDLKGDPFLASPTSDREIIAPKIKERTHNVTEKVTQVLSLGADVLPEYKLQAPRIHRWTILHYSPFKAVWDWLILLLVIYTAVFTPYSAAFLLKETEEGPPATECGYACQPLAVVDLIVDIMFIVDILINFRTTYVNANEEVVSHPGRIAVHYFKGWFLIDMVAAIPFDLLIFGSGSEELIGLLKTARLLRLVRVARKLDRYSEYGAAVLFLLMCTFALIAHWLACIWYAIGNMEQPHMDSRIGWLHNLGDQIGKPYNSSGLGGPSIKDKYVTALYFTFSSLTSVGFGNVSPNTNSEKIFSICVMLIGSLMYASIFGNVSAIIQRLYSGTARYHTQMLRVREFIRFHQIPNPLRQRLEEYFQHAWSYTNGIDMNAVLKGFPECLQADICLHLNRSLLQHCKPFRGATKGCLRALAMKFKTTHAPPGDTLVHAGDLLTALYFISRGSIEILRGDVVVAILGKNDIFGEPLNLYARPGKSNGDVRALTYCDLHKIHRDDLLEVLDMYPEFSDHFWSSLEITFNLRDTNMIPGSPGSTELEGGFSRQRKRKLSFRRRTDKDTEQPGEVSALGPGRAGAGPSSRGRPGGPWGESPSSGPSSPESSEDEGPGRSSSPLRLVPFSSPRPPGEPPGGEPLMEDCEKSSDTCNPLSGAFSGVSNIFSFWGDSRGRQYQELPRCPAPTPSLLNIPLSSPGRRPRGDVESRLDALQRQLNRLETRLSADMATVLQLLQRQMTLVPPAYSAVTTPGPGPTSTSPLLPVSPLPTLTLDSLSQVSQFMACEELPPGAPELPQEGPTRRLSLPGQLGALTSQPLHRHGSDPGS

| SMILES | hERG current change (%, negative = inhibition) at 10uM [%] |
| --- | --- |
| COc1ccc(NC(=O)NN(C(=O)c2ccccc2)C(C)(C)C)cc1 | -0.424 |
| COc1ccc(NS(=O)(=O)c2cccc(C(=O)NCCCN3CCCC3=O)c2)cc1 | 17.9 |
| CC(NC(=O)COc1ccccc1)C(c1ccccc1)N1CCN(C)CC1 (stereo not shown) | -9.29 |
| Cc1ccc(S(=O)(=O)N2CCOCC2)cc1C(=O)Nc1cccc(S(=O)(=O)N2CCCC2)c1 | -38.3 |
| Cc1cccc(Oc2cc(NC(=O)c3ccccc3)cc([N+](=O)[O-])c2)c1 | 3.71 |
| C[C@@H]1[C@@H](Sc2ccccc2)CC(=O)O[C@@H]1c1ccc(-c2ccccc2)cc1 | 10.1 |
| O=C(CN(c1ccccc1)S(=O)(=O)c1ccc(F)cc1)NC1CCS(=O)(=O)C1 (stereo not shown) | 5.22 |
| O=C(Nc1ccc(F)cc1F)c1ccc2nc(N3CCOCC3)sc2c1 | -3.34 |
| COc1cc(NC(=O)c2cccnc2)c(OC)cc1NC(=O)c1ccc(Br)cc1 | 3.53 |
| O=S(=O)(c1ccccc1)N1CCN=C1SCc1ccccc1 | -19.3 |
| O=C(CCCCn1c(=O)c2ccccc2n(CC(=O)NC2CCCC2)c1=O)NCc1ccco1 | -15.6 |
| O=C(Nc1ccnn1C1CCN(Cc2cccc(OCCO)c2)CC1)C1CCCC1 | -24.8 |
| CC(=O)N1CCN(c2ccc(NC(=O)c3cccc([N+](=O)[O-])c3)cc2)CC1 | -3.59 |
| COc1ccc(-c2coc3cc(OC)cc(OC)c3c2=O)cc1 | 6.69 |
| CCOCCCNC(=S)N1C2CCC1CC(NC(=O)Nc1ccc(C(=O)OCC)cc1)C2 (stereo not shown) | 13.7 |
| CCSc1nnc(NC(=O)c2ccc3c(c2)OCO3)s1 | -7.13 |
| O=C(Cc1cccc(C(F)(F)F)c1)Nc1ccccc1 | 8.89 |
| CCOC(=O)C1=C(C)OC(N)=C(C(=O)OCC)C1c1cccnc1 (stereo not shown) | -14.7 |
| CCC(CC)NC(=O)c1ccccc1Oc1ccccc1 | 0.274 |
| Fc1ccc(-c2nnc(-c3ccc(Cl)cc3)o2)cc1 | 15.4 |
| Cc1nnc(SCC(=O)N2CCc3ccccc32)s1 | 0.225 |
| CC(=O)NCC(=O)NC1CC(C)(C)Cc2c1cnn2-c1ccccc1 (stereo not shown) | 12.4 |
| CCc1ccccc1N1CSC2=C(C#N)C(c3cc(OC)c(OC)cc3OC)CC(=O)N2C1 (stereo not shown) | 2.71 |
| O=C(COc1ccc(Cl)cc1Cl)NN1C(=O)/C(=C\c2ccc(Cl)cc2)SC1=S | 17.2 |
| O=Cc1cccn1-c1cccnc1 | 3.86 |
| CCN(CC)S(=O)(=O)c1ccc(N2CC(C(=O)NCCc3ccc(Cl)cc3)CC2=O)cc1 (stereo not shown) | -26.6 |
| CCCCNC(=O)Cn1c2c(c(-c3ccccc3Cl)cc1=O)CCC2 | -23.5 |
| O=C(OCC(=O)N1CCCC1=O)c1cc(S(=O)(=O)N2CCOCC2)ccc1Cl | -22.9 |

| SMILES | hERG current change (%, negative = inhibition) at 10uM [%] |
| --- | --- |
| CCOC(=O)[C@H]1[C@H]2COc3ccc(Br)cc3[C@@H]2N2C(=O)c3cc(F)c(F)cc3NC(=O)[C@@]12C | -3.74 |
| CCN(CC)C(=O)c1ccc(COc2ccccc2Br)o1 | -8.22 |
| COc1ccc(-c2cc(C)no2)cc1S(=O)(=O)Nc1cccc(C)c1 | 10.2 |
| CCCn1c(SCC(=O)N2CCN(CC)CC2)nc2c1c(=O)n(C)c(=O)n2C | 12.9 |
| O=S(=O)(NCC1(N2CCOCC2)CCCCC1)c1ccc(Cl)cc1C(F)(F)F | -0.581 |
| Cc1cccn2c(=O)c3cc(C(=O)N4CCCCC4C)sc3nc12 (stereo not shown) | -0.789 |
| O=C(CCc1ccccc1)Nc1cc(C(F)(F)F)ccc1Cl | 1.66 |
| COCCCNC(=O)c1c(NC(=O)c2ccccc2)n(Cc2ccccc2)c2nc3ccccc3nc12 | -4 |
| Cc1cc(-c2n[nH]c(=S)n2/N=C/c2cccs2)n[nH]1 | 5.42 |
| O=C(O)C1C2C=CC(C2)C1C(=O)OCc1ccccc1 (stereo not shown) | 7.83 |
| CCOC(=O)CNC(=O)CSc1nnc(-c2cccc(OC)c2)n1CC | 7.24 |
| COc1ccc(OC)c(C(=O)COC(=O)CNC(=O)C2CCCCC2)c1 | 14.9 |
| COc1ccc(-c2nnn(CC(=O)N(Cc3cccs3)C(C)C(=O)NC3CCCC3)n2)cc1OC (stereo not shown) | -37.7 |
| COc1ccccc1C(=O)N1CCN(CCNC(=O)C(=O)Nc2ccc(Br)c(C)c2)CC1 | -48.8 |
| CC(C)N=C(Nc1cccnc1)c1ccccc1 | 21.9 |
| CC(C)Cn1c(/C=C/c2ccccc2)nc2ccccc21 | -42.2 |
| Cc1c(N=c2scc(-c3ccccc3)n2CCO)c(=O)n(-c2ccccc2)n1C | 5.72 |
| COC(=O)c1c(N2C(=O)[C@H]3[C@@H](C2=O)[C@]2(C(=O)Nc4c(C)cc(C)cc42)N2CCC[C@@H]32)sc(C)c1C | 9.78 |
| Br.CCCCn1c(=N)n(CC(=O)c2ccc(OC)cc2)c2ccccc21 | -73.6 |
| CCCn1c(SCC(=O)N2CCCc3ccccc32)nc2c1c(=O)n(C)c(=O)n2C | -18 |
| CC(C)N(CCn1c(SCC(=O)N2CC(=O)Nc3ccccc32)nc2ccccc2c1=O)C(C)C | -76.6 |
| CCCNC(=O)NC(=O)CSc1ncc(C(F)(F)F)cc1Cl | 12.6 |
| COc1ccc(-n2c(=O)c3ccccc3c3ccccc3c2=O)cc1 | -3.19 |
| COc1ccc(S(=O)(=O)NCc2cc(-c3ccccc3Cl)no2)cc1 | 3.4 |
| Cc1ccc(S(=O)(=O)/C=C2\NC(=O)CS2)cc1 | 3.46 |
| CC(C)OC(=O)C(C)Nc1ccc(F)c(Cl)c1 (stereo not shown) | -1.65 |
| COc1ccc(C(=O)N2CCN(c3ccc(NC(=O)Cc4ccccc4)cc3)CC2)cc1 | -31.8 |
